Assay results from the supplement of paper PMC4604168 (melanoma cell lines).
This is one part of the list. Single values are uncertain, as repeats are few or missing.

What was measured:
Experiment in all cases: cell count relative to DMSO control; melanoma cells; higher = more viable cells
Details in all cases: library dose: standard library concentration; 72 h
G361 = test system: G361
IPC-298 = test system: IPC-298
IST-MEL1 = test system: IST-MEL1
LB2518-MEL = test system: LB2518-MEL
LOXIMVI = test system: LOXIMVI
MEL-HO = test system: MEL-HO
MZ2-MEL = test system: MZ2-MEL
MeWo = test system: MeWo
RPMI7951 = test system: RPMI7951
RVH-421 = test system: RVH-421
SkMel28 = test system: SkMel28
SkMel2 = test system: SkMel2
SkMel30 = test system: SkMel30
SkMel5 = test system: SkMel5
UACC257 = test system: UACC257
UACC62 = test system: UACC62
WM115 = test system: WM115
WM1716 = test system: WM1716
WM1745 = test system: WM1745
WM3526 = test system: WM3526
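Also: cells treated in 1,536-well plates, then fixed and DAPI-stained, with nuclei counted from automated high-throughput microscope images.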

## C=CCNC1=C2C[C@@H](C)C[C@H](OC)[C@H](O)[C@@H](C)/C=C(\C)[C@H](OC(N)=O)[C@@H](OC)/C=C\C=C(/C)C(=O)NC(=CC1=O)C2=O [Tanespimycin] + OCc1c[nH]c2ccccc12 [Indole-3-carbinol] (first compound 0.01 µM, partner dose 4 µM)
G361
  cell count: 69.5%
IPC-298
  cell count: 92.1%
IST-MEL1
  cell count: 80.4%
LB2518-MEL
  cell count: 75.7%
LOXIMVI
  cell count: 126%
MEL-HO
  cell count: 76.7%
MZ2-MEL
  cell count: 102%
MeWo
  cell count: 79.2%
RPMI7951
  cell count: 21.7%
RVH-421
  cell count: 112%
SkMel28
  cell count: 57.6%
SkMel2
  cell count: 79.1%
SkMel30
  cell count: 100%
SkMel5
  cell count: 72.6%
UACC257
  cell count: 96.5%
UACC62
  cell count: 78.5%
WM115
  cell count: 26.6%
WM1716
  cell count: 87.7%
WM1745
  cell count: 52.2%
WM3526
  cell count: 80.2%

## CN1CCN(c2ccc3nc(-c4c(N)c5c(F)cccc5[nH]c4=O)[nH]c3c2)CC1 [Dovitinib] + O=C(O)c1ccc2c(c1)nc(Nc1cccc(Cl)c1)c1ccncc12 [CX4945] (first compound 0.5 µM, partner dose 2 µM)
G361
  cell count: 41.8%
IPC-298
  cell count: 45.4%
IST-MEL1
  cell count: 62.3%
LB2518-MEL
  cell count: 45.7%
LOXIMVI
  cell count: 56%
MEL-HO
  cell count: 45.6%
MZ2-MEL
  cell count: 34.9%
MeWo
  cell count: 41.2%
RPMI7951
  cell count: 55.8%
RVH-421
  cell count: 68.4%
SkMel28
  cell count: 43.7%
SkMel2
  cell count: 45.2%
SkMel30
  cell count: 50.5%
SkMel5
  cell count: 43.5%
UACC257
  cell count: 89.1%
UACC62
  cell count: 67.8%
WM115
  cell count: 61.4%
WM1716
  cell count: 86.4%
WM1745
  cell count: 47.9%
WM3526
  cell count: 47.9%

## C[C@@H](Oc1cc(-c2cnn(C3CCNCC3)c2)cnc1N)c1c(Cl)ccc(F)c1Cl [Crizotinib] + Oc1nc(-c2ccc(C(F)(F)F)cc2)nc2c1CSCC2 [XAV939] (first compound 1 µM, partner dose 10 µM)
G361
  cell count: 86.1%
IPC-298
  cell count: 84.7%
IST-MEL1
  cell count: 96.1%
LB2518-MEL
  cell count: 84.8%
LOXIMVI
  cell count: 87.8%
MEL-HO
  cell count: 103%
MZ2-MEL
  cell count: 84%
MeWo
  cell count: 78.9%
RPMI7951
  cell count: 87.6%
RVH-421
  cell count: 71.3%
SkMel28
  cell count: 51.4%
SkMel2
  cell count: 75.6%
SkMel30
  cell count: 94.9%
SkMel5
  cell count: 49.2%
UACC257
  cell count: 85.7%
UACC62
  cell count: 56.7%
WM115
  cell count: 53.3%
WM1716
  cell count: 62.8%
WM3526
  cell count: 102%

## C[C@@H](Oc1cc(-c2cnn(C3CCNCC3)c2)cnc1N)c1c(Cl)ccc(F)c1Cl [Crizotinib] + COc1ccc(COc2ccc(Cc3cnc(N)nc3N)cc2OC)cc1 [GW2580] (first compound 1 µM, partner dose 5 µM)
G361
  cell count: 87.8%
IPC-298
  cell count: 81.2%
IST-MEL1
  cell count: 98.3%
LB2518-MEL
  cell count: 78.1%
LOXIMVI
  cell count: 95.6%
MEL-HO
  cell count: 81.7%
MZ2-MEL
  cell count: 82.8%
MeWo
  cell count: 74.1%
RPMI7951
  cell count: 71.2%
RVH-421
  cell count: 119%
SkMel28
  cell count: 52.6%
SkMel2
  cell count: 78.9%
SkMel30
  cell count: 90%
SkMel5
  cell count: 47.4%
UACC257
  cell count: 69.8%
UACC62
  cell count: 83.5%
WM115
  cell count: 48.1%
WM1716
  cell count: 75.2%
WM3526
  cell count: 63.6%

## CNC(=O)c1cc(Oc2ccc(NC(=O)Nc3ccc(Cl)c(C(F)(F)F)c3)cc2)ccn1 [sorafenib] + COc1cc2c(Oc3ccc4[nH]c(C)cc4c3F)ncnc2cc1OCCCN1CCCC1 [cediranib] (first compound 2 µM, partner dose 2 µM)
G361
  cell count: 86.4%
IPC-298
  cell count: 89.7%
IST-MEL1
  cell count: 90.1%
LB2518-MEL
  cell count: 72.4%
LOXIMVI
  cell count: 76.7%
MEL-HO
  cell count: 98.1%
MZ2-MEL
  cell count: 103%
MeWo
  cell count: 61.3%
RPMI7951
  cell count: 71.4%
RVH-421
  cell count: 83.7%
SkMel28
  cell count: 100%
SkMel2
  cell count: 69.1%
SkMel30
  cell count: 103%
SkMel5
  cell count: 83.6%
UACC257
  cell count: 82.8%
UACC62
  cell count: 61%
WM115
  cell count: 63.3%
WM1716
  cell count: 93.1%
WM1745
  cell count: 64.1%
WM3526
  cell count: 74.4%

## CN1CCN(c2ccc3nc(-c4c(N)c5c(F)cccc5[nH]c4=O)[nH]c3c2)CC1 [Dovitinib] + COCC[n+]1c2c(n(Cc3cnccn3)c1C)C(=O)c1ccccc1C2=O [YM155] (first compound 0.5 µM, partner dose 0.002 µM)
G361
  cell count: 56.8%
IPC-298
  cell count: 42.9%
IST-MEL1
  cell count: 47%
LB2518-MEL
  cell count: 19.2%
LOXIMVI
  cell count: 120%
MEL-HO
  cell count: 67.5%
MZ2-MEL
  cell count: 24.6%
MeWo
  cell count: 23.9%
RPMI7951
  cell count: 62%
RVH-421
  cell count: 86.9%
SkMel28
  cell count: 25.2%
SkMel2
  cell count: 33.9%
SkMel30
  cell count: 61.8%
SkMel5
  cell count: 27.8%
UACC257
  cell count: 36.1%
UACC62
  cell count: 69.2%
WM115
  cell count: 55.5%
WM1716
  cell count: 50.9%
WM1745
  cell count: 76.6%
WM3526
  cell count: 46%

## C[C@@H](Oc1cc(-c2cnn(C3CCNCC3)c2)cnc1N)c1c(Cl)ccc(F)c1Cl [Crizotinib] + C[C@]1(c2nc3c(C(N)=O)cccc3[nH]2)CCCN1 [Veliparib] (first compound 1 µM, partner dose 7 µM)
G361
  cell count: 73%
IPC-298
  cell count: 108%
IST-MEL1
  cell count: 89.3%
LB2518-MEL
  cell count: 74.6%
LOXIMVI
  cell count: 132%
MEL-HO
  cell count: 84.4%
MZ2-MEL
  cell count: 71.7%
MeWo
  cell count: 70.7%
RPMI7951
  cell count: 103%
RVH-421
  cell count: 75.6%
SkMel28
  cell count: 49.9%
SkMel2
  cell count: 73.2%
SkMel30
  cell count: 72.3%
SkMel5
  cell count: 62.3%
UACC257
  cell count: 78.6%
UACC62
  cell count: 59.3%
WM115
  cell count: 42%
WM1716
  cell count: 74.2%
WM1745
  cell count: 42.5%
WM3526
  cell count: 68.8%

## CNC(=O)c1cc(Oc2ccc(NC(=O)Nc3ccc(Cl)c(C(F)(F)F)c3)cc2)ccn1 [sorafenib] + Cc1cc(N2CCOCC2)cc2[nH]c(-c3c(NC[C@@H](O)c4cccc(Cl)c4)cc[nH]c3=O)nc12 [BMS536924] (first compound 2 µM, partner dose 1 µM)
G361
  cell count: 69.9%
IPC-298
  cell count: 94%
IST-MEL1
  cell count: 90.6%
LB2518-MEL
  cell count: 65.1%
LOXIMVI
  cell count: 91%
MEL-HO
  cell count: 97.3%
MZ2-MEL
  cell count: 105%
MeWo
  cell count: 58.8%
RPMI7951
  cell count: 69.7%
RVH-421
  cell count: 81.1%
SkMel28
  cell count: 76.6%
SkMel2
  cell count: 38.8%
SkMel30
  cell count: 93.2%
SkMel5
  cell count: 66.9%
UACC257
  cell count: 80%
UACC62
  cell count: 72.1%
WM115
  cell count: 84.8%
WM1716
  cell count: 106%
WM1745
  cell count: 51.9%
WM3526
  cell count: 63.1%
